Laboratory results as given in PubChem BioAssay AID588591 (National Center for Advancing Translational Sciences (NCATS), 2011).
About 4,700 (1.2%) of roughly 390,000 compounds were called active. Inconclusive means that the source gave no clear call. Such entries were picked first, then a sample of the others. Calls come from the whole dose curve; as a rule, active = well fitted inhibition curve with a large enough effect; inconclusive = small, poorly fitted or top-dose-only effect, or another doubt; inactive = no such curve, though single readings can be large or run the other way. Potencies of inconclusive entries are doubtful fits and often do not repeat.
% is set by controls: 0 for no effect and ±100 for the full control effect; potency is the fitted concentration of half-maximal effect; tags give direction and shape of the fitted curve.

The molecules below were run against DNA polymerase eta (Homo sapiens) (UniProt Q9Y253) (assay: qHTS for Inhibitors of Polymerase Eta). Settings: recombinant Pol eta, fluorescent DNA replication assay; series mostly up to 114 µM; activity change, negative = inhibition: at the top concentration.
Sequence of UniProt Q9Y253 (Q9Y253 whole entry, looked up): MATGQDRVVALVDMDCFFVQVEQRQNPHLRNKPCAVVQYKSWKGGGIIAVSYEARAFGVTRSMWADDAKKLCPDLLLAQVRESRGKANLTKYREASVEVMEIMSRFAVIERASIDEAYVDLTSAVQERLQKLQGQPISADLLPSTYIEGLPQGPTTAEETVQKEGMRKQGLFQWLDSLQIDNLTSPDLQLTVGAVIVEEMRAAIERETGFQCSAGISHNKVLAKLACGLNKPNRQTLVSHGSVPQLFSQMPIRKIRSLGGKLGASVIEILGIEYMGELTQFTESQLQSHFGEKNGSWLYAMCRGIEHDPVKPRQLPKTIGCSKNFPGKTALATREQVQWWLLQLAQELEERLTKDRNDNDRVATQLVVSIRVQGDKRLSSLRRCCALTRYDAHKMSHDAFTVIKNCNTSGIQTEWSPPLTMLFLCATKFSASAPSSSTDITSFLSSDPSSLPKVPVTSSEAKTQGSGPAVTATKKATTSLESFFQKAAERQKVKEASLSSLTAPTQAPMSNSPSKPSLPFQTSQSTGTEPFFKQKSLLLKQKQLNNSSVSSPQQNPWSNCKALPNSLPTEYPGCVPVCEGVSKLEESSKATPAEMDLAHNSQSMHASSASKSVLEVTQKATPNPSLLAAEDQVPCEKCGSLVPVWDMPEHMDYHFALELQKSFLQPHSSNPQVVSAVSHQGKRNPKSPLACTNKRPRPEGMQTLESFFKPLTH
Summary of the method: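 Fluorescent replication assay: 50 nM final substrate added after a 15 min room-temperature compound preincubation with 10 nM enzyme. Signal taken at 0 min and again at 10 min.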
In the case of `O=C(O)c1ccccc1C(=O)Nc1ccc(Nc2ccc([N+](=O)[O-])cc2[N+](=O)[O-])cc1`, the Potency was inconclusive: 39.8 µM [inhibitor, single point]. In the case of `COc1ccc(Nc2cc(C(=O)NCc3ccccc3)c3ccccc3n2)cc1OC`, the Potency was inconclusive: 89.1 µM [inhibitor, single point]. `CN1C(=O)c2[nH]nc(-c3ccc(F)cc3)c2C1c1ccccn1` (configuration not stated) was tested, and the Potency was inconclusive: 79.4 µM [inhibitor, partial curve, poor fit]. `CC(C)(C)c1ccc(NC(=O)CSc2nnc(-c3n[nH]c4ccccc34)o2)cc1` was tested, and the Potency was inconclusive: 89.1 µM [inhibitor, partial curve, poor fit]. With `CCOC(=O)C1=c2s/c(=C\c3cccnc3)c(=O)n2C(N)=C(C(=O)OC)C1c1cccnc1` (configuration not stated) the Potency was inconclusive: 25.1 µM [inhibitor, partial curve, poor fit]. `CCCC[n+]1c2ccccc2cc2ccccc21` was tested, and the “activity change, negative = inhibition” value was inactive: -0.969%. For `COc1ccc(Cc2nnc(SCC(=O)Nc3ncc(C)s3)o2)cc1`, the “activity change, negative = inhibition” value was inactive: 3.53%. In the case of `COc1ccccc1OC(=O)CCc1nc2ccccc2s1`, the Potency was inconclusive: 50.1 µM [inhibitor, partial curve]. For `CCOc1cc(NS(=O)(=O)c2ccccc2)c(OCC)cc1NC(=O)c1ccco1`, the Potency was inconclusive: 17.8 µM [inhibitor, partial curve, poor fit]. `O=C(COC(=O)/C=C/c1ccc(Cl)cc1Cl)Nc1cccc(S(=O)(=O)NC2=NCCC2)c1` was tested, and the Potency was inconclusive: 100 µM [inhibitor, single point]. `Cc1cccc2nc(CSc3nc4ccc([N+](=O)[O-])cc4[nH]3)cn12` was tested, and the Potency was inconclusive: 44.7 µM [inhibitor, partial curve]. With `CC(C)(C)OC(=O)CNC(=O)c1[nH]cnc1C(=O)Nc1ccc(Cl)cc1` the “activity change, negative = inhibition” value was inactive: -23.2%. With `CSc1oc(-c2ccco2)nc1S(=O)(=O)c1ccc(Br)cc1` the Potency was inconclusive: 28.2 µM [inhibitor, partial curve, poor fit]. In the case of `Cn1ncc(C#N)c1NC(=O)C1CC(c2ccc(Cl)cc2)=NO1` (configuration not stated), the Potency was inconclusive: 89.1 µM [inhibitor, partial curve, poor fit]. `O=C(COC(=O)C1c2ccccc2Oc2ccccc21)Nc1ccc2c(c1)OCO2` was tested, and the Potency was inconclusive: 28.2 µM [inhibitor, partial curve, poor fit]. For `COc1ccccc1NC(=O)Cn1cncc1-c1ccc([N+](=O)[O-])cc1`, the “activity change, negative = inhibition” value was inactive: -10.5%. For `C/C(CC(=O)Nc1cccc(Br)c1)=N\NC(=O)c1ccc(O)cc1O`, the “activity change, negative = inhibition” value was inactive: -10.3%. In the case of `Cc1cc(/C=N/Nc2ccc([N+](=O)[O-])cn2)c(C)n1-c1ccc(C(=O)O)cc1`, the Potency was active: 17.8 µM. `Cc1ccc(Cn2c(C)c(CNC(C)c3ccccc3)c(C(=O)O)c2C)cc1` (configuration not stated) was tested, and the “activity change, negative = inhibition” value was inactive: -6.4%. For `Cc1oc(=O)c(NC(=O)c2ccc(Cl)cc2)cc1C(=O)c1ccccc1`, the Potency was inconclusive: 28.2 µM [inhibitor, single point]. For `CCCn1c(N/N=C\C=C\c2ccccc2)nc2c1c(=O)[nH]c(=O)n2C`, the Potency was inconclusive: 44.7 µM [inhibitor, partial curve, poor fit]. With `Cc1c(C(=O)N(Cc2ccc(N(C)C)cc2)CC2CCCO2)oc2ccc(Br)cc12` (configuration not stated) the “activity change, negative = inhibition” value was inactive: -23.4%. In the case of `CC(=O)c1cccc(NC(=O)CSc2ccc(-c3sc(C)nc3C)nn2)c1`, the “activity change, negative = inhibition” value was inactive: -4.34%. In the case of `CC(=O)c1ccc(-c2ccc(C(=O)Nc3nc(C)c(C(C)=O)s3)o2)cc1`, the Potency was inconclusive: 79.4 µM [inhibitor, partial curve]. `Cc1ccc(N(CC(C)C)S(=O)(=O)c2nnc(NC(=O)c3cccs3)s2)cc1` was tested, and the Potency was inconclusive: 100 µM [inhibitor, partial curve, poor fit]. `O=C(CCS(=O)(=O)c1ccc(Br)cc1)NC1CCCC1` was tested, and the Potency was inconclusive: 56.2 µM [inhibitor, partial curve, poor fit]. With `O=c1[nH]c2c(s1)C=Nc1ccccc1N2` the Potency was inconclusive: 100 µM [inhibitor, single point]. In the case of `O=C(N/N=C/c1ccco1)c1cccc(S(=O)(=O)Nc2ccccc2Cl)c1`, the Potency was active: 20 µM. With `Cc1ccc(-c2nn(-c3ccccc3)cc2C(=O)OCC(=O)Nc2ncc(Cl)cc2Cl)cc1` the Potency was inconclusive: 28.2 µM [inhibitor, partial curve, poor fit]. `CCCc1cc(=O)oc2cc(C)c(CN3CCCC3)c(O)c12` was tested, and the Potency was active: 22.4 µM. For `COc1ccc(N2C3=C(CC4=C2CCCC4=O)C(=O)CCC3)cc1`, the Potency was inconclusive: 15.8 µM [inhibitor, partial curve, poor fit]. In the case of `COc1cccc(C(=O)OCC(=O)c2ccc(Br)s2)c1`, the Potency was inconclusive: 15.8 µM [inhibitor, partial curve, poor fit]. For `Cc1ccc(C)c(-c2nc3ccc(N)cc3[nH]2)c1`, the “activity change, negative = inhibition” value was inactive: -9.34%. `CCOCCCNC(=O)c1ccc(CS(=O)(=O)Cc2ccccc2F)o1` was tested, and the Potency was inconclusive: 89.1 µM [inhibitor, single point]. With `COc1ccc2[nH]c(=O)c(-c3noc(-c4ccccc4)n3)cc2c1` the Potency was inconclusive: 11.2 µM [inhibitor, full curve, poor fit]. For `COc1ccc2oc(C(=O)OCC(=O)NC3(C#N)CCCC3)c(C)c2c1`, the Potency was inconclusive: 3.16 µM [inhibitor, full curve, poor fit]. For `CCOc1ccc(OCCC(=O)NNC(=O)c2cc(OC)c(OC)c(OC)c2)cc1`, the Potency was inconclusive: 31.6 µM [inhibitor, partial curve, poor fit]. For `O=C(CSc1nnc(CNC(=O)c2c(F)cccc2Cl)o1)NCc1ccc(F)cc1`, the “activity change, negative = inhibition” value was inactive: -18.4%. In the case of `O=C(O)C(Cc1ccccc1)n1cccc1` (configuration not stated), the Potency was inconclusive: 28.2 µM [inhibitor, partial curve, poor fit]. `CCc1ccc(-n2c(=O)c3c(C)c(C(=O)N(C)C)sc3n(Cc3ccccc3C#N)c2=O)cc1` was tested, and the “activity change, negative = inhibition” value was inactive: 15.4%. For `COc1ccc(-n2nnnc2SCC(=O)NC2CC2)cc1`, the Potency was active: 89.1 µM. `Cc1c(C(=O)O)sc(S(=O)(=O)N2CCN(C(=O)Cc3ccccc3)CC2)c1C(=O)O` was tested, and the Potency was inconclusive: 28.2 µM [inhibitor, full curve].
